From the supplement of paper PMC4723716
± gives the uncertainty stated by the source. Over roughly 9,900 compounds, “viability index relative to DMSO control” has its median near 1; the lowest 2% begin near 0.85. Some of the results follow.

Each molecule was assayed on Plasmodium falciparum NF54 stage V gametocytes (assay: viability index relative to DMSO control (fraction); higher = less gametocyte killing). Conditions: 2.5 µM, library set: Broad Institute DOS, incubation time: 72 h.
Outline: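 P. falciparum NF54 stage V gametocytes (serum-free medium, 0.75% gametocytemia, 1.25% hematocrit) were exposed to compound at 2.5 µM for 72 hr at 37°C under low oxygen, then stained with MitoTracker Red CMXRos and saponin for one to two hours. Red particles of 20–70 µm2 in one field per well were counted, and the viability index is that count scaled to the plate mean of solvent-only wells.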

Structure (SMILES)	viability index
Cc1ccccc1-c1cnc2c(c1)C(=O)N([C@H](C)CO)C[C@H](C)[C@@H](CN(C)Cc1ccccc1F)O2	1.06 ± 0.015
N#C[C@@H]1[C@H](c2ccccc2C2=CCCCC2)[C@@H](CO)N1C(=O)CN1CCOCC1	1.13 ± 0.075
CN1C(=O)c2cc(NC(=O)C3CCOCC3)ccc2OC[C@@H]2O[C@H](CC(=O)NCc3ccccc3F)CC[C@@H]21	1.01 ± 0.032
C/C=C/c1ccccc1[C@@H]1[C@@H](C#N)N(C(=O)CN2CCOCC2)[C@@H]1CO	1.16 ± 0.14
COc1ccccc1S(=O)(=O)N(C)C[C@H]1OCc2cn(nn2)CCCC(=O)N([C@@H](C)CO)C[C@@H]1C	1.06 ± 0.053
O=C(O)C[C@H]1C[C@H]2c3cc(NC(=O)Cc4ccncc4)ccc3O[C@H]2[C@@H](CO)O1	1.028 ± 0.01
O=C(C[C@@H]1CC[C@H](NC(=O)CN2CCOCC2)[C@H](CO)O1)NC1CCC1	1.17 ± 0.053
O=C(C[C@@H]1CC[C@H](NC(=O)C2CCOCC2)[C@@H](CO)O1)NCC1CCCCC1	1.1 ± 0.079
CCC(=O)N1[C@@H](CO)[C@H](c2ccccc2)[C@@H]1CN(C)C(=O)CN1CCOCC1	0.951 ± 0.014
CO[C@H]1CN(C)C(=O)c2cc(NC(=O)Nc3cccc(Cl)c3)ccc2OC[C@H](C)N(C(=O)Nc2c(C)noc2C)C[C@@H]1C	1.08 ± 0.027
O=C(C1CCOCC1)N1CC2(C1)[C@H](c1ccccc1)[C@H](CO)N2C(=O)CC1CC1	1.1 ± 0.067
CCC(=O)NC[C@@H]1[C@@H](c2ccc(-c3cccc(F)c3)cc2)[C@@H](CO)N1CC1CC1	1.067 ± 0.01
COc1ccc2c3c([C@@H](CO)N(C)C[C@]33CN(C3)S(=O)(=O)c3cccc(C)c3)n(C)c2c1	0.94 ± 0.11
CN1C(=O)c2cc(NS(=O)(=O)c3ccccc3F)ccc2OC[C@H]2O[C@H](CC(=O)NC3Cc4ccccc4C3)CC[C@H]21	0.872 ± 0.018
C[C@H]1CN([C@@H](C)CO)C(=O)CCCn2nncc2CO[C@H]1CN(C)C(=O)Nc1ccc2c(c1)OCCO2	1.028 ± 0.01
Cc1noc(C)c1NC(=O)N[C@@H]1C=C[C@H](CC(=O)Nc2ccc(-c3ccccc3)cc2)O[C@H]1CO	0.9758 ± 0.0078
COc1ccccc1C#Cc1ccc([C@@H]2[C@H]3CN(C(=O)C4CCC4)CCCCN3[C@H]2CO)cc1	1 ± 0.035
O=C(NCC[C@@H]1CC[C@H](NC(=O)c2ccncc2)[C@H](CO)O1)Nc1ccc(Cl)cc1	1.16 ± 0.034
C[C@H]1CC(=O)N[C@H](c2ccccc2)C/C=C\C[C@@H](c2ccccc2)NC1=O	1.049 ± 0.0043
COc1ccc(C#Cc2ccc([C@@H]3[C@H]4CN(C(=O)NC(C)C)CC(=O)N4[C@H]3CO)cc2)cc1	1.11 ± 0.053
CN(C)C(=O)C[C@H]1CC[C@@H]2[C@H](COC[C@H](O)CN2S(=O)(=O)c2ccccc2Cl)O1	1.09 ± 0.032
COc1ccc2c3c([C@@H](CO)N(CC4CC4)C[C@]33CN(C3)C(=O)CC3CC3)n(C)c2c1	0.957 ± 0.11
CCCNC(=O)N1CC2(C1)[C@@H](c1ccccc1)[C@H](CO)N2C(=O)CC1CC1	1.16 ± 0.018

Structure (SMILES)	viability index
N#Cc1cccc(-c2ccc([C@@H]3[C@@H]4CN(C(=O)c5ccc6c(c5)OCO6)C[C@H]3N4)cc2)c1	0.896 ± 0.077
COc1ccc(S(=O)(=O)N(C)C[C@@H]2Oc3ccc(N(C)C)cc3CC(=O)N([C@H](C)CO)C[C@@H]2C)cc1	1.03 ± 0.033
CO[C@H](CN(C)Cc1cc(F)ccc1F)[C@@H](C)CN([C@H](C)CO)S(=O)(=O)c1ccc(C)cc1	1.11 ± 0.028
CNC(=O)C[C@H]1CC[C@H]2[C@H](COc3ccc(NC(=O)c4ccccc4F)cc3C(=O)N2C)O1	1.11 ± 0.07
N#C[C@H]1[C@@H](c2ccccc2-c2cccc(F)c2)[C@H](CO)N1C(=O)C1CC1	1.18 ± 0.045
O=C(C[C@H]1CC[C@@H]2[C@H](COC[C@@H](O)CN2C(=O)Nc2cccc(F)c2)O1)NCCCN1CCOCC1	1 ± 0.053
COc1ccc2c3c([C@@H](CO)N(C[C@]33CN(C3)C(=O)c3ccccn3)S(=O)(=O)c3ccc(C)cc3)n(C)c2c1	0.97 ± 0.014
O=C(C1CCCCC1)N1CC(=O)N2[C@H](CO)[C@H](c3ccc(-c4ccccc4F)cc3)[C@H]2C1	0.994 ± 0.028
COc1ccc(-c2ccc([C@@H]3[C@@H]4CN(S(=O)(=O)c5ccccc5C)C[C@H]3N4)cc2)cc1	0.713 ± 0.11
C[C@H](CO)N1C[C@H](C)[C@H](CN(C)Cc2ccccc2C(=O)O)OCc2cnnn2CCCC1=O	1.04 ± 0.051
C[C@H](CO)N1C[C@H](C)[C@@H](CN(C)S(=O)(=O)c2cn(C)cn2)Oc2c(NC(=O)Nc3ccc(C(F)(F)F)cc3)cccc2C1=O	1.03 ± 0.13
Cc1ccccc1-c1ccc([C@H]2[C@@H]3CN(Cc4ccc5c(c4)OCO5)C[C@H]2N3)cc1	1.06 ± 0.057
C[C@H]1CN([C@@H](C)CO)C(=O)c2cccc(NC(=O)c3ccc(-c4nccs4)cc3)c2O[C@@H]1CN(C)C(=O)Nc1ccc(C(F)(F)F)cc1	1.03 ± 0.067
CN(C)CC(=O)Nc1ccc2c(c1)C(=O)N(C)[C@H]1CC[C@H](CC(=O)Nc3cccc(Cl)c3)O[C@@H]1CO2	1.01 ± 0.083
COc1ccc(-c2ccccc2[C@H]2[C@@H](C#N)N(C(=O)NC3CCCCC3)[C@H]2CO)cc1	1.09 ± 0.012
O=C(CC1CC1)N1CC(=O)N2[C@H](CO)[C@@H](c3ccc(/C=C/c4ccccc4)cc3)[C@H]2C1	1.1 ± 0.031
O=S(=O)(c1cccs1)N1CCCCN2[C@H](CO)[C@H](c3ccc(/C=C/c4ccccc4)cc3)[C@@H]2C1	0.993 ± 0.045
CN(C)C(=O)C[C@H]1C[C@@H]2c3cc(NC(=O)Nc4ccc(F)cc4)ccc3O[C@@H]2[C@H](CO)O1	1.1 ± 0.049
CC(=O)N1[C@H](CO)[C@H](c2ccccc2)[C@H]1CN(C)S(=O)(=O)c1ccccc1	1.0021 ± 0.00068
COc1ccc(S(=O)(=O)N(C)C[C@H]2Oc3ccc(NC(=O)Nc4ccc(C(F)(F)F)cc4)cc3C(=O)N([C@@H](C)CO)C[C@@H]2C)cc1	1.02 ± 0.065
CNC[C@@H]1Oc2c(N)cccc2C(=O)N([C@H](C)CO)C[C@H]1C	0.995 ± 0.088
COc1ccc(C#Cc2cccc(-c3nc(C(=O)NCCCN4CCOCC4)cc4c3[C@@H](CCO)N(S(=O)C(C)(C)C)C4)c2)cc1OC (stereo partly specified)	1.08 ± 0.014
C[C@@H]1CCCCO[C@H](CN(C)C(=O)CCC(F)(F)F)[C@H](C)CN([C@H](C)CO)C(=O)c2cc(NC(=O)C3CCCCC3)ccc2O1	1.05 ± 0.034
